# This is one part of the list.
# Assays:
# HSkMC = human skeletal muscle cells; test: cytotoxicity call (relative viability < 0.9); conditions: 10 µM
# HepG2 = test: cytotoxicity call (relative viability < 0.9); conditions: 10 µM
# S. aureus RN4220 = test: growth inhibition call (relative growth <= 0.2); conditions: 50 µM
Compound,cytotoxicity call (HSkMC),cytotoxicity call (HepG2),growth inhibition call (S. aureus RN4220)
C[C@@H]1CN([C@@H](C)CO)C(=O)c2cc(NC(=O)Nc3ccc(C(F)(F)F)cc3)ccc2O[C@@H](C)CCCCO[C@@H]1CN(C)S(=O)(=O)c1ccccc1,inactive,inactive,inactive
C[C@@H]1CN([C@H](C)CO)C(=O)c2cccc(NC(=O)C3CCOCC3)c2O[C@@H]1CN(C)S(=O)(=O)c1cccs1,inactive,inactive,inactive
Cc1noc(C)c1S(=O)(=O)Nc1ccc2c(c1)C(=O)N([C@H](C)CO)C[C@H](C)[C@H](CN(C)Cc1ccc(C(=O)O)cc1)O2,inactive,inactive,inactive
C[C@@H]1CCCCO[C@@H](CN(C)C(=O)Nc2ccc(C(F)(F)F)cc2)[C@H](C)CN([C@@H](C)CO)C(=O)c2cc(NC(=O)CCC(F)(F)F)ccc2O1,inactive,inactive,inactive
C[C@H](CO)N1C[C@H](C)[C@@H](CN(C)Cc2ccc(Cl)c(Cl)c2)Oc2c(NC(=O)NC3CCCCC3)cccc2C1=O,inactive,inactive,inactive
O=C(Nc1cc(Cl)ccc1Cl)c1cc(Cl)ccc1NS(=O)(=O)c1ccc(Cl)c([N+](=O)[O-])c1,inactive,active,active
O=C(OC[C@H]1O[C@@H](OC(=O)c2cc(O)c(O)c(O)c2)[C@H](OC(=O)c2cc(O)c(O)c(O)c2)[C@@H](OC(=O)c2cc(O)c(O)c(O)c2)[C@@H]1OC(=O)c1cc(O)c(O)c(O)c1)c1cc(O)c(O)c(O)c1,active,active,inactive
CCC(C)n1ncn(-c2ccc(N3CCN(c4ccc(OCC5COC(Cn6cncn6)(c6ccc(Cl)cc6Cl)O5)cc4)CC3)cc2)c1=O.Cl.Cl (stereo not drawn),inactive,active,inactive
C[C@H]1CCCCO[C@@H](CN(C)C(=O)Nc2cccc3ccccc23)[C@@H](C)CN([C@@H](C)CO)C(=O)c2cc(NC(=O)C3CCCCC3)ccc2O1,inactive,inactive,inactive
C[C@@H]1CN([C@@H](C)CO)C(=O)CCCn2cc(nn2)CO[C@H]1CN(C)C(=O)Nc1cccc(Oc2ccccn2)c1,inactive,inactive,inactive
C[C@H]1CCCCO[C@H](CN(C)C)[C@@H](C)CN([C@@H](C)CO)C(=O)c2cc(NC(=O)CCCCCC(=O)Nc3ccccc3N)ccc2O1,inactive,inactive,inactive
C[C@@H]1CN([C@@H](C)CO)C(=O)c2cc(NS(=O)(=O)c3ccc(F)cc3)ccc2O[C@@H](C)CCCCO[C@H]1CN(C)Cc1ccc(C(=O)O)cc1,inactive,inactive,inactive
CCOC(=O)C[C@@H](N)c1ccccc1Cl,inactive,inactive,inactive
COc1ccc(CN(C)C[C@H]2OCCCC[C@@H](C)Oc3ccc(NC(=O)Nc4ccc(C(F)(F)F)cc4)cc3C(=O)N([C@H](C)CO)C[C@@H]2C)cc1,active,active,inactive
CC(=O)OC/C=C(\C)CCC=C(C)C,inactive,inactive,inactive
CC(C)n1nccc1NC(=O)CN,inactive,inactive,inactive
C[C@@H]1CN([C@H](C)CO)C(=O)c2cccc(NS(=O)(=O)c3cn(C)cn3)c2O[C@H]1CN(C)Cc1ccccc1,inactive,inactive,inactive
C[C@H]1CCCCO[C@H](CN(C)Cc2ccc(C(F)(F)F)cc2)[C@@H](C)CN([C@@H](C)CO)C(=O)c2cc(NC(=O)NC3CCCCC3)ccc2O1,inactive,active,inactive
C[C@@H]1CN([C@H](C)CO)C(=O)c2cc(-c3ccc(C#N)cc3)cnc2O[C@H]1CN(C)C(=O)Nc1ccc(C(F)(F)F)cc1,inactive,inactive,inactive
CC(=O)c1c(O)cc(O)cc1CC(=O)O,inactive,inactive,inactive
C[C@@H]1CCCCO[C@H](CN(C)Cc2ccc3c(c2)OCO3)[C@@H](C)CN([C@@H](C)CO)C(=O)c2cc(NC(=O)CCC(F)(F)F)ccc2O1,inactive,inactive,inactive
COc1ccc(S(=O)(=O)N(C)C[C@@H]2Oc3c(NS(=O)(=O)c4ccc(F)cc4)cccc3C(=O)N([C@H](C)CO)C[C@H]2C)cc1,inactive,inactive,inactive
C#C[C@@]1(O)[C@@H](CO)O[C@@H](n2ccc(N)nc2=O)[C@@H]1O,inactive,active,inactive
O=C(NO)c1cn(-c2ccc(C[C@H]3C(=O)O[C@@H](Cc4ccccc4)[C@H]4[C@@H]5C=CCCC=C5CN43)cc2)nn1,inactive,active,inactive
C[C@H](CO)N1C[C@H](C)[C@@H](CN(C)Cc2ccc(Oc3ccccc3)cc2)Oc2ccc(NC(=O)Nc3cccc4ccccc34)cc2CC1=O,inactive,active,inactive
C[C@H]1CN([C@@H](C)CO)C(=O)c2cccc(NC(=O)Nc3cccc4ccccc34)c2O[C@@H]1CN(C)S(=O)(=O)c1ccc(Cl)cc1,inactive,inactive,inactive

# Source: the antibiotic and cytotoxicity screens of Wong et al. (2023)
